# In all, about 44,000 compounds went through this assay and about 340 (0.77%) were called active. Roughly 5% stayed inconclusive and do not appear here. Calls follow the shape of the dose curve; as a rule, active = well fitted inhibition curve with a large enough effect; inconclusive = small, poorly fitted or top-dose-only effect; inactive = flat fitted curve, though single readings scatter. The list shows a part of the results.
# Assay: Acumen qHTS Assay for Inhibitors of the mTORC1 Signaling Pathway in MEF (Tsc2-/-, p53-/-) Cells: Sytravon;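 also: plate controls were DMSO for no effect and rapamycin for full effect; nearly all actives have a fitted effect of over 50% in size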
# Conditions: phospho-rpS6 immunofluorescence/PI, 24 h; series mostly up to 38.3 µM; activity change, negative = inhibition: at the top concentration
# Outline: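 Tsc2-/-, p53-/- MEFs (empty-vector stable line) in DMEM + 10% FBS were treated with compounds 24 h at 37 degree Celsius, fixed, and immunostained for phospho-rpS6 (Alexa-488) with propidium iodide counterstain. Laser-scanning cytometry gave % positive cells, normalized against 7.5 nM rapamycin and DMSO.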
row,Structure (SMILES),"activity change, negative = inhibition"
1,O=C(NCc1ccc(Cl)cc1)C1CCN(c2nn3cc(-c4ccc(F)cc4)nc3s2)CC1,inactive: 7.3%
2,CCCNC(=O)CCC(=O)N1Cc2cccc(OC)c2Oc2ncccc21,inactive: -0.394%
3,CC1CN(C(=O)NCc2ccccc2)c2cc(Cl)ccc2O1 (configuration not stated),inactive: 8.32%
4,COc1ccc(Cl)cc1NC(=O)c1cc(-c2ccc3c(c2)OCO3)on1,inactive: 0.253%
5,COc1ccc(NC(=O)c2nc(S(C)(=O)=O)ncc2N(Cc2ccc(C)cc2)Cc2ccco2)cc1Cl,inactive: -0.55%
6,COc1cccc(CNC(=O)c2cc(-c3ccc(Cl)s3)nc3ccccc23)c1,inactive: 3.29%
7,CCCCc1cc(=O)oc2cc(C)c3c(C(C)(C)C)coc3c12,inactive: 1.06%
8,COc1ccc(C)cc1NC(=O)N1CCN(S(=O)(=O)c2ccc3c(ccn3C)c2)CC1,inactive: -14%
9,Cc1ncc(CO)c2c1Oc1nc(-c3ccc(Cl)cc3)nc(SCC(=O)N3CCCCC3)c1C2,inactive: -2.42%
10,Cc1cccc(CSc2nc3c(sc4ccccc43)c(=O)n2CCC(=O)NC(C)C)c1,inactive: -9.77%
11,COc1ccc(C(CC(=O)O)NC(=O)c2cc3ccccc3oc2=O)cc1OC (configuration not stated),inactive: 14.5%
12,Oc1ccc(Nc2nc3ccccc3n3cnnc23)cc1,inactive: 1.89%
13,Cc1cccc(Cn2c(=O)n(Cc3ccc(C(=O)NC4CCN(Cc5ccccc5)CC4)cc3)c(=O)c3ccccc32)c1,inactive: -10.2%
14,CCOC(=O)c1cnc2c(C)cc(C)cc2c1Nc1cccc(C(=O)O)c1,inactive: 10.9%
15,CCOCCCNC(=O)CN1C(=O)COc2ccc(S(=O)(=O)N3CCCCCC3)cc21,inactive: -23.4%
16,O=C(Nc1cccc2cccnc12)c1ccccc1[N+](=O)[O-],inactive: 3.32%
17,CC(=O)c1ccc(N2CCN(c3ccc(NC(=O)c4cccs4)cc3C(=O)O)CC2)cc1,inactive: 0.816%
18,CC(C(=O)NCc1ccccc1Cl)n1ccc2cc(S(=O)(=O)N3CCCCC3)ccc21 (configuration not stated),inactive: -6.2%
19,Cc1ccc(NC(=O)CSc2nnc3nc(C)cc(C)n23)cc1,inactive: -0.848%
20,CCc1cccc(C)c1NC(=O)CCCn1c(=O)c2cccn2c2cccnc21,inactive: -0.365%
21,CCOC(=O)c1ccccc1NC(=O)NC(C)c1c(-n2cccc2)sc(C)c1C (configuration not stated),inactive: -5.92%
22,Cc1ccc(C)c(NC(=O)CN2C(=O)c3cccc4cccc2c34)c1,inactive: -9.55%
23,O=c1c2ccccc2n2c(-c3ccccc3O)nnc2n1Cc1ccc(F)cc1,inactive: 0.526%
24,Cc1cccc(Cn2ccn(Cc3ccc(Cl)cc3)c(=O)c2=O)c1,inactive: -13%
25,CCN(CC)C(=O)c1sc(NC(=O)c2nc3ncccn3n2)c(C(=O)OC)c1C,inactive: -15.4%
26,O=C(CSc1nc(-c2cccc(Cl)c2)nc2cc(=O)[nH]n12)Nc1ccccc1,inactive: -2.57%
27,CCCCCC(=O)N1c2ccccc2C(C)(c2ccccc2)CC1(C)C (configuration not stated),inactive: -0.158%
